Reference: the RNAGym collection of RNA variant scans (doi:10.7554/elife.90254)
The source gives no read counts; variants with many changes may rest on few reads.

B1: LINE1-full (parent)
chain: UACGUAGGUGGUUUUCCCCUGAUAGUGCUAAGGGGGCCUGGAAGUUUGGACUGGGCAGAGCUCAACACAGCGUGGCAAAGUGGCUGUGGCUAGACUGCCUCUCUGGAUUCCUCGUCACUCAGCAGGGCAUCUCUGAGAGAAAUGCC

Variants of: B1
Experiment: self-cleavage, relative activity (ratio to wild type); higher = more cleavage; in vitro, sequencing; the parent is a self-cleaving ribozyme
With U47A C56U U108C the self-cleavage was 0.13.
For U47A G49A G125U, the self-cleavage was 0.76.
In the case of U47A G55A A57U A67U G88A U100C A107U, the self-cleavage is reported as 0.01.
Variant U47A G72A U102C has a self-cleavage of 1.21.
With U47A G72U A94U the self-cleavage was 0.18.
U47A G80U C110U A138G A142G gave a self-cleavage of 1.96.
U47A U52A G60U U134C gave a self-cleavage of 0.02.
Variant U47A U52A U73G has a self-cleavage of 1.52.
U47A U52A U81C G114A showed a self-cleavage of 1.01.
U47A U52G A59G gave a self-cleavage of 0.08.
In the case of U47A U62A A136U, the self-cleavage is reported as 0.01.
U47A U62C A140U gave a self-cleavage of 0.06.
U47A U62C U112C gave a self-cleavage of 0.16.
In the case of U47A U73C A140G, the self-cleavage is reported as 1.46.
U47A U73C C99A gave a self-cleavage of 1.
U47A U73G U109C gave a self-cleavage of 1.06.
U47A U85A A121U showed a self-cleavage of 0.11.
For U47A U85G A121G A124U, the self-cleavage was 0.14.
With U47A U87C U102A U130C the self-cleavage was 0.23.
With U47A U91A U102A U115A A140G the self-cleavage was 0.56.
Work on U47A U91C A94G C120A yielded a self-cleavage of 0.11.
U47A U96A A136G gave a self-cleavage of 0.05.
For U47A U100C U132C, the self-cleavage was 1.99.
U47A U108C A124G showed a self-cleavage of 2.54.
U47A U109A G125A A129G showed a self-cleavage of 1.01.
Variant U47A U109A U119C U143C has a self-cleavage of 1.7.
U47A U115C A121G gave a self-cleavage of 0.85.
In the case of U47A U134C A140G, the self-cleavage is reported as 2.22.
U47C A50G A65U U115C gave a self-cleavage of 0.
U47C A50G C71U gave a self-cleavage of 0.86.
For U47C A50G G54U A57G U96A U115A A138G A140U, the self-cleavage was 0.
In the case of U47C A57G A141U, the self-cleavage is reported as 2.52.
Variant U47C A57G U130A has a self-cleavage of 0.
In the case of U47C A64G A78G, the self-cleavage is reported as 0.19.
U47C A64G A140G gave a self-cleavage of 0.58.
U47C A64G C71G A78G U104C showed a self-cleavage of 0.61.
Variant U47C A64G U73A G126U has a self-cleavage of 0.28.
In the case of U47C A64U G125C, the self-cleavage is reported as 0.69.
Variant U47C A65G U73A A121U U132A has a self-cleavage of 0.05.
Work on U47C A65G U119C yielded a self-cleavage of 0.
In the case of U47C A67C A77G A142U, the self-cleavage is reported as 0.
With U47C A67G A79G A117U the self-cleavage was 0.
With U47C A67G U81A A141G the self-cleavage was 0.
U47C A77U U109C gave a self-cleavage of 0.37.
Variant U47C A78G A117U has a self-cleavage of 0.94.
With U47C A79G U85A the self-cleavage was 0.22.
U47C A79G U87A A140G A141G gave a self-cleavage of 0.09.
In the case of U47C A79U U100C U119C, the self-cleavage is reported as 2.7.
U47C A94U C131A A138G showed a self-cleavage of 0.47.
With U47C A94U U112C the self-cleavage was 0.52.
Work on U47C A107C C120U yielded a self-cleavage of 2.1.
For U47C A107G A136G, the self-cleavage was 1.36.
For U47C A107G U108C, the self-cleavage was 2.3.
In the case of U47C A107G U134A, the self-cleavage is reported as 2.15.
U47C A117G A136G showed a self-cleavage of 2.1.
For U47C A124G U132C, the self-cleavage was 0.42.
U47C C51A U62C showed a self-cleavage of 0.06.
With U47C C56U A117G the self-cleavage was 0.41.
In the case of U47C C61U G72A U85C A142G, the self-cleavage is reported as 0.03.
With U47C C61U U87C A129U the self-cleavage was 0.02.
Variant U47C G48A G86A G93A G126A U130A has a self-cleavage of 0.
In the case of U47C G53A A129G, the self-cleavage is reported as 1.38.
With U47C G53A C63U C76U U109A the self-cleavage was 0.59.
U47C G55A A59U A138G showed a self-cleavage of 0.64.
U47C G55U U104A A141G showed a self-cleavage of 0.1.
U47C G70A A138G showed a self-cleavage of 0.32.
U47C G75C U115A showed a self-cleavage of 0.89.
U47C U62C A78G A79G C145U showed a self-cleavage of 0.
U47C U62C A92G U96A gave a self-cleavage of 0.
U47C U62C C103U showed a self-cleavage of 0.12.
Variant U47C U62C U73G U130C has a self-cleavage of 0.
Work on U47C U62C U112C yielded a self-cleavage of 0.
With U47C U73A G88A the self-cleavage was 0.06.
Variant U47C U81A U112C has a self-cleavage of 2.64.
In the case of U47C U81C A136U, the self-cleavage is reported as 1.72.
With U47C U81C U134A the self-cleavage was 1.97.
U47C U85A U132A showed a self-cleavage of 0.14.
Work on U47C U87A U100C yielded a self-cleavage of 0.15.
In the case of U47C U87C A124G, the self-cleavage is reported as 0.
With U47C U87C U96A U109C the self-cleavage was 0.
With U47C U96A U102C the self-cleavage was 0.16.
Variant U47C U96C U112A has a self-cleavage of 0.
Work on U47C U100A U112A yielded a self-cleavage of 0.95.
U47C U102C U132A gave a self-cleavage of 2.92.
Work on U47C U112A U132C yielded a self-cleavage of 1.93.
Variant U47C U115A A138G A141G has a self-cleavage of 1.55.
With U47C U115G A142G the self-cleavage was 1.31.
U47C U119A A140G showed a self-cleavage of 1.32.
Work on U47C U119C G122A A141G yielded a self-cleavage of 1.63.
For U47G G54A U130C, the self-cleavage was 0.49.
With U47G G60C A67U the self-cleavage was 0.04.
Variant U47G G114A A141G has a self-cleavage of 0.8.
With U47G U62A G89A the self-cleavage was 0.03.
In the case of U47G U62C A69G C120A, the self-cleavage is reported as 0.06.
With U47G U85C U91C the self-cleavage was 0.
For U47G U112C A140G, the self-cleavage was 1.07.
With G48A A57G U102C the self-cleavage was 0.03.
G48A A77G A107G gave a self-cleavage of 1.67.
G48A A78G A142G gave a self-cleavage of 0.74.
Variant G48A A79G A142G has a self-cleavage of 1.01.
G48A U52A A138G showed a self-cleavage of 1.18.
Variant G48A U62C A69U U109C A142C has a self-cleavage of 0.01.
Variant G48A U85C U100C has a self-cleavage of 0.23.
For G48C A79G U143G, the self-cleavage was 0.91.
For G48U A94G U115A A142G, the self-cleavage was 0.17.
G48U U85C U100C gave a self-cleavage of 0.42.
Variant G49A A59G C61U G75A A117G U134A has a self-cleavage of 0.02.
For G49A A64C U73A A79G U112A, the self-cleavage was 0.2.
G49A A65C U73A showed a self-cleavage of 0.03.
G49A A79G U100C showed a self-cleavage of 1.23.
Work on G49A A117G U143C yielded a self-cleavage of 1.31.
With G49A G97C U100C the self-cleavage was 0.08.
G49A U62C U81A gave a self-cleavage of 0.05.
With G49A U62C U108C A121U A129G the self-cleavage was 0.03.
G49A U81C C145A showed a self-cleavage of 0.98.
Variant G49A U81C U87A U112C C116U U119A has a self-cleavage of 0.05.
G49A U115C U130A gave a self-cleavage of 0.67.
Work on G49U A50G U85C U132C yielded a self-cleavage of 0.1.
Variant G49U A57U A121C has a self-cleavage of 0.08.
Work on G49U A67U A141G A142G yielded a self-cleavage of 0.05.
In the case of G49U A69G G127A, the self-cleavage is reported as 0.15.
With G49U G83A A140G the self-cleavage was 0.65.
In the case of G49U U73C A121G, the self-cleavage is reported as 1.13.
G49U U96A A138G showed a self-cleavage of 0.05.
Variant G49U U102C C110U has a self-cleavage of 1.08.
A50C A57U A64U A67G U109A A142G showed a self-cleavage of 0.07.
A50C A59G U108C showed a self-cleavage of 0.
A50G A57G A92G A140U U143A showed a self-cleavage of 0.57.
A50G A57G C123U showed a self-cleavage of 0.23.
For A50G A59G A107G, the self-cleavage was 0.
In the case of A50G A59G A138G, the self-cleavage is reported as 0.
Work on A50G A59G A142G yielded a self-cleavage of 0.
For A50G A59G U87A, the self-cleavage was 0.
A50G A64G C66A A78U U87C U132C showed a self-cleavage of 0.38.
A50G A64U A124G U134A showed a self-cleavage of 0.1.
For A50G A64U A136U, the self-cleavage was 0.62.
With A50G A64U U85C A129U U130C the self-cleavage was 0.17.
With A50G A67G G83A the self-cleavage was 0.
A50G A69G A142G showed a self-cleavage of 0.12.
With A50G A69U A141G the self-cleavage was 0.11.
In the case of A50G A77G C133A A138U, the self-cleavage is reported as 1.84.
With A50G A77U A142G the self-cleavage was 0.99.
With A50G A77U U91G the self-cleavage was 0.06.
A50G A77U U143A showed a self-cleavage of 0.5.
A50G A78G U85C A107U U143G showed a self-cleavage of 0.
For A50G A78G U132C, the self-cleavage was 0.
In the case of A50G A79G G86A U96C U115C, the self-cleavage is reported as 0.2.
A50G A79G U102C gave a self-cleavage of 0.
With A50G A79U A129G U132C A142G the self-cleavage was 2.63.
A50G A92G A138G showed a self-cleavage of 0.
A50G A92G C113U gave a self-cleavage of 0.15.
For A50G A92U U130C, the self-cleavage was 0.4.
In the case of A50G A121C U134C, the self-cleavage is reported as 1.72.
A50G A124G C146G gave a self-cleavage of 0.59.
In the case of A50G A138U C145U, the self-cleavage is reported as 0.73.
With A50G C90U C118U A136C the self-cleavage was 0.03.
Work on A50G C101A U102C yielded a self-cleavage of 1.19.
For A50G C103U U134C A138G, the self-cleavage was 0.84.
With A50G U52A A64C the self-cleavage was 0.51.
A50G U62C A77G A136U gave a self-cleavage of 0.29.
For A50G U62C A124G, the self-cleavage was 0.34.
In the case of A50G U62C A138U, the self-cleavage is reported as 0.
For A50G U62C U112C U132C A136G, the self-cleavage was 0.
A50G U73A A138U gave a self-cleavage of 0.67.
In the case of A50G U81A A94U A107U U130C, the self-cleavage is reported as 0.54.
For A50G U81A C99U A138G A142G, the self-cleavage was 0.43.
A50G U81C U96C U104A A141G showed a self-cleavage of 0.
